# According to the supplement of paper PMC8285479:
# Counter-ions that a name gives are not always drawn. ± gives the standard deviation of the averaged measurements. Over roughly 1,900 compounds, “normalised cell viability (NPI; 0 = phenylarsine oxide control, 1 = DMSO control)” has its median near 1; the lowest 2% begin near 0.039. This is one part of the list.
# System: NCI-H1944
# Test: normalised cell viability (NPI; 0 = phenylarsine oxide control, 1 = DMSO control) (fraction of DMSO control); NCI-H1944 is a non-small cell lung cancer line; higher = more viable cells (less compound toxicity)
# Conditions: 6 days
# [1] = glucocorticoid arm: hydrocortisone 2.75 uM co-treatment, compound 1 µM
# [2] = glucocorticoid arm: hydrocortisone 2.75 uM co-treatment, compound 5 µM
# [3] = glucocorticoid arm: hydrocortisone 2.75 uM pre-treated 2 days and continued, compound 1 µM
# [4] = glucocorticoid arm: hydrocortisone 2.75 uM pre-treated 2 days and continued, compound 5 µM
# [5] = glucocorticoid arm: vehicle, compound 1 µM
# [6] = glucocorticoid arm: vehicle, compound 5 µM
# 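Note: CTB read-out in 384-well plates, mean of triplicate wells, normalised per plate against 1 µM phenylarsine oxide and 0.1% DMSO, compounds added 24 h after seeding.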
smiles,measurement,setting,value
Cc1nc(N=Nc2cc(S(=O)(=O)O)c3cc([N+](=O)[O-])cc(S(=O)(=O)O)c3c2)c(COP(=O)(O)O)c(C=O)c1O [PPNDS tetrasodium],normalised cell viability,[1],1.001 ± 0.0085
same,normalised cell viability,[2],1.01 ± 0.037
same,normalised cell viability,[3],1.013 ± 0.0058
same,normalised cell viability,[4],0.857 ± 0.27
same,normalised cell viability,[5],0.9973 ± 0.0021
same,normalised cell viability,[6],0.999 ± 0.0098
Cc1cccc(C2CN(C)CCc3c2cc(O)c(O)c3Cl)c1 (stereo unspecified),normalised cell viability,[1],0.974 ± 0.018
same,normalised cell viability,[2],0.979 ± 0.026
same,normalised cell viability,[3],0.856 ± 0.23
same,normalised cell viability,[4],0.977 ± 0.02
same,normalised cell viability,[5],0.982 ± 0.0044
same,normalised cell viability,[6],0.986 ± 0.0052
CCN1CCN(c2ccc(Nc3cc(N(C)C(=O)Nc4c(Cl)c(OC)cc(OC)c4Cl)ncn3)cc2)CC1,normalised cell viability,[1],1.03 ± 0.01
same,normalised cell viability,[2],1.033 ± 0.0058
same,normalised cell viability,[3],1.01 ± 0.019
same,normalised cell viability,[4],1.02 ± 0.01
same,normalised cell viability,[5],1.007 ± 0.0058
same,normalised cell viability,[6],0.998 ± 0.021
Oc1cc(O)cc(/C=C/c2ccc(O)c(O)c2)c1 [Piceatannol],normalised cell viability,[5],1
CC[C@@]1(O)C(=O)OCc2c1cc1n(c2=O)Cc2cc3c(CN(C)C)c(O)ccc3nc2-1 [Topotecan HCl; Topotecan hydrochloride],normalised cell viability,[1],0.253 ± 0.013
same,normalised cell viability,[2],1.067 ± 0.0058
same,normalised cell viability,[3],0.5493 ± 0.0029
same,normalised cell viability,[4],1.05 ± 0.02
same,normalised cell viability,[5],0.0903 ± 0.0031
same,normalised cell viability,[6],1.01 ± 0.011
Nc1nnc(-c2cccc(Cl)c2Cl)c(N)n1 [Lamotrigine],normalised cell viability,[1],0.998 ± 0.0035
same,normalised cell viability,[2],0.986 ± 0.039
same,normalised cell viability,[3],1 ± 0.028
same,normalised cell viability,[4],0.954 ± 0.076
same,normalised cell viability,[5],1.01 ± 0.011
same,normalised cell viability,[6],1.01 ± 0.018
CCOC(=O)N[C@@H]1CC[C@@H]2[C@@H](C1)C[C@H]1C(=O)O[C@H](C)[C@H]1[C@H]2/C=C/c1ccc(-c2cccc(F)c2)cn1 [Vorapaxar],normalised cell viability,[1],1.023 ± 0.0058
same,normalised cell viability,[2],1.01 ± 0.014
same,normalised cell viability,[3],1.03 ± 0.011
same,normalised cell viability,[4],1.01 ± 0.012
same,normalised cell viability,[5],1.002 ± 0.0068
same,normalised cell viability,[6],0.98 ± 0.013
O=C(O)c1ccc(O)c2ncccc12,normalised cell viability,[1],0.966 ± 0.015
same,normalised cell viability,[2],0.996 ± 0.0036
same,normalised cell viability,[3],0.953 ± 0.034
same,normalised cell viability,[4],0.987 ± 0.01
same,normalised cell viability,[5],1.001 ± 0.0085
same,normalised cell viability,[6],0.9917 ± 0.0049
CO[C@H]1C[C@@H]2CC[C@@H](C)[C@@](O)(O2)C(=O)C(=O)N2CCCC[C@H]2C(=O)O[C@H]([C@H](C)C[C@@H]2CC[C@H](n3cnnn3)[C@H](OC)C2)CC(=O)[C@H](C)/C=C(\C)[C@@H](O)[C@@H](OC)C(=O)[C@H](C)C[C@H](C)/C=C/C=C/C=C/1C [Zotarolimus(ABT-578)],normalised cell viability,[1],0.7853 ± 0.0061
same,normalised cell viability,[2],0.654 ± 0.011
same,normalised cell viability,[3],0.71 ± 0.024
same,normalised cell viability,[4],0.75 ± 0.023
same,normalised cell viability,[5],0.689 ± 0.011
same,normalised cell viability,[6],0.598 ± 0.049
O=C(c1ccc(Cl)cc1Cl)n1nnc2ccccc21,normalised cell viability,[1],0.996 ± 0.028
same,normalised cell viability,[2],1.01 ± 0.055
same,normalised cell viability,[3],1 ± 0.016
same,normalised cell viability,[4],1.01 ± 0.033
same,normalised cell viability,[5],1.003 ± 0.0055
same,normalised cell viability,[6],0.999 ± 0.012
"CN1C2CCC1CC(NC(=O)c1nn(C)c3ccccc13)C2 (stereo unspecified) [LY-278,584 maleate]",normalised cell viability,[1],0.9863 ± 0.0067
same,normalised cell viability,[2],0.977 ± 0.033
same,normalised cell viability,[3],0.9957 ± 0.0075
same,normalised cell viability,[4],1.03 ± 0.085
same,normalised cell viability,[5],0.9753 ± 0.0051
same,normalised cell viability,[6],0.9783 ± 0.0091
Cc1nnc(SCC2=C(C(=O)O)N3C(=O)[C@@H](NC(=O)Cn4cnnn4)[C@H]3SC2)s1 [Cefazolin sodium],normalised cell viability,[1],1.003 ± 0.0058
same,normalised cell viability,[2],1.01 ± 0.011
same,normalised cell viability,[3],0.998 ± 0.013
same,normalised cell viability,[4],1.02 ± 0.014
same,normalised cell viability,[5],0.989 ± 0.0089
same,normalised cell viability,[6],1.005 ± 0.0087
Cc1cc(F)c(Nc2ncnc3cc(OCc4ccccc4)ccc23)cc1O,normalised cell viability,[1],1.01 ± 0.016
same,normalised cell viability,[2],0.975 ± 0.01
same,normalised cell viability,[3],1.04 ± 0.02
same,normalised cell viability,[4],1.02 ± 0.016
same,normalised cell viability,[5],1.003 ± 0.0058
same,normalised cell viability,[6],0.998 ± 0.011
CCCCC1(C2CCCC2)Cc2cc(OCC(=O)O)c(Cl)c(Cl)c2C1=O (stereo in doubt) [R(+)-Butylindazone],normalised cell viability,[1],0.9903 ± 0.0064
same,normalised cell viability,[2],0.958 ± 0.011
same,normalised cell viability,[3],0.988 ± 0.01
same,normalised cell viability,[4],0.965 ± 0.028
same,normalised cell viability,[5],0.983 ± 0.006
same,normalised cell viability,[6],0.9887 ± 0.004
"O=c1[nH]c2cc(Cl)c(Cl)cc2[nH]c1=O [6,7-Dichloroquinoxaline-2,3-dione]",normalised cell viability,[1],1.01 ± 0.011
same,normalised cell viability,[2],1.04 ± 0.011
same,normalised cell viability,[3],1.003 ± 0.0061
same,normalised cell viability,[4],1.04 ± 0.021
same,normalised cell viability,[5],0.989 ± 0.007
same,normalised cell viability,[6],1.002 ± 0.0068
c1cc(CN2CCCNCCNCCCNCC2)ccc1CN1CCCNCCNCCCNCC1 [Plerixafor],normalised cell viability,[1],1 ± 0.018
same,normalised cell viability,[2],1 ± 0.017
same,normalised cell viability,[3],1.01 ± 0.011
same,normalised cell viability,[4],0.996 ± 0.016
same,normalised cell viability,[5],1.006 ± 0.0063
same,normalised cell viability,[6],1.01 ± 0.013
O=C1OC(=O)[C@H]2[C@@H]1[C@@H]1CC[C@H]2O1 [Norcantharidin],normalised cell viability,[1],1.007 ± 0.0058
same,normalised cell viability,[2],1.03 ± 0.02
same,normalised cell viability,[3],1.02 ± 0.011
same,normalised cell viability,[4],0.924 ± 0.23
same,normalised cell viability,[5],0.9903 ± 0.0011
same,normalised cell viability,[6],1 ± 0.022
C=C(C)C1CC=C(C(=O)O)CC1 [(S)-(-)-Perillic acid],normalised cell viability,[1],1 ± 0.0095
same,normalised cell viability,[2],0.999 ± 0.021
same,normalised cell viability,[3],1.01 ± 0.018
same,normalised cell viability,[4],0.999 ± 0.0017
same,normalised cell viability,[5],1.01 ± 0.011
same,normalised cell viability,[6],0.992 ± 0.012
NCCCCN [Putrescine dihydrochloride],normalised cell viability,[1],0.982 ± 0.0056
same,normalised cell viability,[2],0.993 ± 0.022
same,normalised cell viability,[3],1.01 ± 0.027
same,normalised cell viability,[4],0.998 ± 0.014
same,normalised cell viability,[5],0.977 ± 0.0056
same,normalised cell viability,[6],0.9723 ± 0.0049
O=C(NCCCNc1nc(Nc2cccc(NC(=O)N3CCCC3)c2)ncc1I)c1cccs1,normalised cell viability,[1],0.9797 ± 0.0095
same,normalised cell viability,[2],0.993 ± 0.027
same,normalised cell viability,[3],0.9587 ± 0.0025
same,normalised cell viability,[4],1.05 ± 0.017
same,normalised cell viability,[5],0.71 ± 0.01
same,normalised cell viability,[6],0.3133 ± 0.0023
CN1CC[C@@H](c2c(O)cc(O)c3c(=O)cc(-c4ccccc4Cl)oc23)[C@@H]1CO,normalised cell viability,[1],0.183 ± 0.011
same,normalised cell viability,[2],0.031 ± 0.004
same,normalised cell viability,[3],0.601 ± 0.026
same,normalised cell viability,[4],0.0698 ± 0.0051
same,normalised cell viability,[5],0.0431 ± 0.0039
same,normalised cell viability,[6],0.00913 ± 0.002
O=C(O)c1cc([N+](=O)[O-])ccc1NCCCc1ccccc1 [5-Nitro-2-(3-phenylpropylamino)benzoic acid],normalised cell viability,[1],1
same,normalised cell viability,[2],1 ± 0.026
same,normalised cell viability,[3],1.01 ± 0.02
same,normalised cell viability,[4],0.877 ± 0.24
same,normalised cell viability,[5],0.9907 ± 0.0057
same,normalised cell viability,[6],1 ± 0.013
S=c1[nH]cnc2nc[nH]c12 [Mercaptopurine],normalised cell viability,[1],0.956 ± 0.014
same,normalised cell viability,[2],0.739 ± 0.047
same,normalised cell viability,[3],0.9827 ± 0.0086
same,normalised cell viability,[4],0.875 ± 0.036
same,normalised cell viability,[5],0.9903 ± 0.0096
same,normalised cell viability,[6],0.794 ± 0.028
COc1cc2c(cc1OC)-c1c/c(=N\c3c(C)cc(C)cc3C)n(C)c(=O)n1CC2 [Trequinsin hydrochloride],normalised cell viability,[1],1.03 ± 0.015
same,normalised cell viability,[2],1.02 ± 0.022
same,normalised cell viability,[3],0.908 ± 0.2
same,normalised cell viability,[4],1.033 ± 0.0058
same,normalised cell viability,[5],1.023 ± 0.0058
same,normalised cell viability,[6],1.05 ± 0.035
CCNc1nc(Nc2cc(F)c(C(=O)N3CCOCC3)cc2OC)ncc1C(F)(F)F,normalised cell viability,[1],0.9993 ± 0.0097
same,normalised cell viability,[2],1.017 ± 0.0058
same,normalised cell viability,[3],1.005 ± 0.0092
same,normalised cell viability,[4],1.02 ± 0.025
same,normalised cell viability,[5],0.9993 ± 0.0011
same,normalised cell viability,[6],1.013 ± 0.0058
O=C1Nc2ccc(I)cc2/C1=C/c1cc(Br)c(O)c(Br)c1,normalised cell viability,[1],1.02 ± 0.01
same,normalised cell viability,[2],1.05 ± 0.01
same,normalised cell viability,[3],1.007 ± 0.0058
same,normalised cell viability,[4],1.04 ± 0.017
same,normalised cell viability,[5],1.001 ± 0.009
same,normalised cell viability,[6],1.013 ± 0.0058
